From a collection of fitness landscapes (doi:10.1016/j.celrep.2020.107928)
Whole data set: some 81,000 sequences, median “one-hybrid fitness for binding NBS DNA” near -0.1, cut for the highest 2% near 0.36. Some of the results follow.

B1: Caulobacter ParB omega fusion; a variant is named by its letters at X, in order, B8GW30 (parent)
chain: MESVVVGEPGMSEGRRGLGRGLSALLGEVDAAPAQAPGEQLGGSREAPIEILQRNPDQPRRTFREEDLEDLSNSIREKGVLQPILVRPSPDTAGEYQIVAGERAWRAAQRAGLKTVPIMVRELDDLAVLEIGIIENVQRADLNVLEEALSYKVLMEKFERTQENIAQTIGKSXSHVANXMRLLXLPDEVQSYLVSGELTAXHARAIAAAADPVALAKQIIEGGLSVRETEALARKAPNLSAGKSKGGRPPRVKDTDTQALESDLSSVLGLDVSIDHRGSTGTLTITYATLEQLDDLCNRLTRGI

Variants of: B1
Assay: one-hybrid fitness for binding NBS DNA (the Noc-binding site; scaled: cognate 1, non-cognate 0); higher = stronger binding
Conditions: with NBS DNA site
Summary of the method: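 Caulobacter ParB libraries with four specificity codons randomised were screened by bacterial one-hybrid selection in the E. coli USO strain, using a HIS3 reporter whose site lies 19 bp from the promoter. Selection ran for 48 hours at 37°C on M9 lacking histidine, with 0.1 mM IPTG and 5 mM 3-AT. Plasmids were Illumina-sequenced before and after selection, three replicate libraries were pooled, and variants with under 10 reads were dropped. Fitness is the log change in each variant's read ratio to wild type, rescaled against the cognate and non-cognate sites.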

Variant | one-hybrid fitness for binding NBS DNA
RCFF | ≤ 0.2
PACM | ≤ 0.2
MQVG | ≤ 0.2
MCTY | ≤ 0.2
RLGW | ≤ 0.2
VDKG | ≤ 0.2
RCEV | ≤ 0.2
RAMQ | ≤ 0.2
CFRG | ≤ 0.2
RTIN | ≤ 0.2
VNSR | ≤ 0.2
QYKG | 0.294
LTNC | ≤ 0.2
QMWL | ≤ 0.2
TRVE | ≤ 0.2
YADV | ≤ 0.2
SCFI | ≤ 0.2
RLIL | ≤ 0.2
RVIQ | ≤ 0.2
NLRW | ≤ 0.2
KVRQ | ≤ 0.2
NGSG | ≤ 0.2
TGHG | ≤ 0.2
MWKT | ≤ 0.2

Variant | one-hybrid fitness for binding NBS DNA
FPSN | ≤ 0.2
ETTC | ≤ 0.2
MIIG | ≤ 0.2
LGTR | ≤ 0.2
IQRG | ≤ 0.2
RGQV | ≤ 0.2
SCRS | ≤ 0.2
TNHF | ≤ 0.2
THFL | ≤ 0.2
IRWP | ≤ 0.2
HLFS | ≤ 0.2
RHQK | ≤ 0.2
MKSG | ≤ 0.2
NLTN | ≤ 0.2
TGML | ≤ 0.2
CPER | ≤ 0.2
YWRF | ≤ 0.2
EMGY | ≤ 0.2
ATYC | ≤ 0.2
MPYG | ≤ 0.2
DRGE | ≤ 0.2
ANMR | ≤ 0.2
LSEL | ≤ 0.2
KSQR | ≤ 0.2

Variant | one-hybrid fitness for binding NBS DNA
RDSS | ≤ 0.2
YKCR | ≤ 0.2
YTVE | ≤ 0.2
SYLN | ≤ 0.2
TPPQ | ≤ 0.2
LVLK | ≤ 0.2
TYFR | ≤ 0.2
TQGQ | ≤ 0.2
ENKL | ≤ 0.2
KTCL | ≤ 0.2
AQEL | ≤ 0.2
DIMR | ≤ 0.2
TQDR | ≤ 0.2
TNNS | ≤ 0.2
KPNS | ≤ 0.2
RWQN | ≤ 0.2
PVMY | ≤ 0.2
MGVV | ≤ 0.2
SSYP | ≤ 0.2
RHLH | ≤ 0.2
ESNL | ≤ 0.2
LAQR | ≤ 0.2
QYHI | ≤ 0.2
KRQS | 0.443

Variant | one-hybrid fitness for binding NBS DNA
TCTH | ≤ 0.2
VKDE | ≤ 0.2
ARVS | ≤ 0.2
QMLM | ≤ 0.2
GTIL | ≤ 0.2
RRTA | 0.619
WKQS | ≤ 0.2
LALI | ≤ 0.2
RQGW | ≤ 0.2
KYLS | ≤ 0.2
KKWY | ≤ 0.2
AETM | ≤ 0.2
RACY | ≤ 0.2
TYKS | ≤ 0.2
QVFV | ≤ 0.2
TYDN | ≤ 0.2
ERAM | 0.249
WSVS | ≤ 0.2
WHAS | ≤ 0.2
NYDV | ≤ 0.2
IHCR | ≤ 0.2
PPFE | ≤ 0.2
YLCL | ≤ 0.2
ADHW | ≤ 0.2

Variant | one-hybrid fitness for binding NBS DNA
RNSG | ≤ 0.2
DWVY | ≤ 0.2
AHHM | ≤ 0.2
HSCP | ≤ 0.2
FNPH | ≤ 0.2
EQQG | ≤ 0.2
GRLN | ≤ 0.2
IIPT | ≤ 0.2
EYST | ≤ 0.2
SLRS | ≤ 0.2
QQSL | ≤ 0.2
WTNW | ≤ 0.2
RDCT | ≤ 0.2
CALI | ≤ 0.2
PNTM | ≤ 0.2
AREP | ≤ 0.2
LSWR | ≤ 0.2
YHYF | ≤ 0.2
RMYW | ≤ 0.2
LCAV | ≤ 0.2
TLMP | ≤ 0.2
PWNM | ≤ 0.2
LIPC | ≤ 0.2
SKWG | ≤ 0.2

Variant | one-hybrid fitness for binding NBS DNA
SYTA | ≤ 0.2
MAVH | ≤ 0.2
ETAR | ≤ 0.2
ATSS | ≤ 0.2
GDQS | ≤ 0.2
IAKY | ≤ 0.2
WTIG | ≤ 0.2
CRSN | ≤ 0.2
HWRS | ≤ 0.2
CDIR | ≤ 0.2
RGFG | ≤ 0.2
AIHY | ≤ 0.2
RIMC | ≤ 0.2
RQKM | 0.201
VSDS | ≤ 0.2
WAKD | ≤ 0.2
GDFS | ≤ 0.2
IRAT | 0.244
GNQN | ≤ 0.2
EPDC | ≤ 0.2
QCLT | 0.487
LMDV | ≤ 0.2
WPAN | ≤ 0.2
CWYR | ≤ 0.2

Variant | one-hybrid fitness for binding NBS DNA
VWQD | ≤ 0.2
NTRA | ≤ 0.2
KSAI | ≤ 0.2
ESDG | ≤ 0.2
MVLY | ≤ 0.2
RGGT | ≤ 0.2
YRKT | 0.288
EMAG | ≤ 0.2
GPCF | ≤ 0.2
SWIR | ≤ 0.2
GNKI | ≤ 0.2
AHKN | ≤ 0.2
QINR | 0.479
KWEG | ≤ 0.2
GQLR | ≤ 0.2
SNTR | ≤ 0.2
GEGS | ≤ 0.2
VCPP | ≤ 0.2
KVPT | ≤ 0.2
GCPN | ≤ 0.2
PKNA | ≤ 0.2
GLPM | ≤ 0.2
IISY | ≤ 0.2
PPPH | ≤ 0.2

Variant | one-hybrid fitness for binding NBS DNA
PAEM | ≤ 0.2
EMTT | ≤ 0.2
GRCM | ≤ 0.2
SGVD | ≤ 0.2
RRWM | 0.23
QMIY | ≤ 0.2
KLAC | ≤ 0.2
EIGT | ≤ 0.2
SLPF | ≤ 0.2
WVES | ≤ 0.2
AETR | ≤ 0.2
RIHK | ≤ 0.2
DTKG | ≤ 0.2
LVSK | ≤ 0.2
HQHR | ≤ 0.2
RNAQ | ≤ 0.2
QKHM | ≤ 0.2
EGMT | ≤ 0.2
WIQG | ≤ 0.2
TMAV | ≤ 0.2
RANC | ≤ 0.2
ASVI | ≤ 0.2
MTHL | ≤ 0.2
SYLR | ≤ 0.2

Variant | one-hybrid fitness for binding NBS DNA
RSPS | ≤ 0.2
KASC | ≤ 0.2
DAYC | ≤ 0.2
HAVC | ≤ 0.2
FPQN | ≤ 0.2
EGAG | ≤ 0.2
QAGF | ≤ 0.2
IPQH | ≤ 0.2
VKYS | ≤ 0.2
WMSM | ≤ 0.2
LKRG | ≤ 0.2
QSRH | 0.535
NFDV | ≤ 0.2
HIDG | ≤ 0.2
WAEG | ≤ 0.2
TVYE | ≤ 0.2
MNNC | ≤ 0.2
LFHC | ≤ 0.2
ASAW | ≤ 0.2
SEKG | ≤ 0.2
IEQS | ≤ 0.2
KMQG | ≤ 0.2
SHID | ≤ 0.2
KEVR | ≤ 0.2

Variant | one-hybrid fitness for binding NBS DNA
MSIG | ≤ 0.2
KQSH | ≤ 0.2
NCHC | ≤ 0.2
KAEM | ≤ 0.2
LMKV | ≤ 0.2
MHQL | ≤ 0.2
TATF | ≤ 0.2
TMDA | ≤ 0.2
NSME | ≤ 0.2
FWPR | 0.486
ENSG | ≤ 0.2
SLWS | ≤ 0.2
WTKG | ≤ 0.2
RALS | 0.283
VNAS | ≤ 0.2
LMHG | ≤ 0.2
SFGG | ≤ 0.2
NAYS | ≤ 0.2
MPER | ≤ 0.2
ARPP | ≤ 0.2
QTVK | ≤ 0.2
IPHC | ≤ 0.2
ARYY | ≤ 0.2
QWNT | ≤ 0.2

Variant | one-hybrid fitness for binding NBS DNA
VPRS | ≤ 0.2
PTET | ≤ 0.2
TARC | ≤ 0.2
QWTQ | ≤ 0.2
QVTM | ≤ 0.2
PCPT | ≤ 0.2
KQNY | ≤ 0.2
RCTC | ≤ 0.2
RDHI | ≤ 0.2
AHLT | ≤ 0.2
STQT | ≤ 0.2
RNNN | ≤ 0.2
EAKT | ≤ 0.2
VAGI | ≤ 0.2
FYPL | ≤ 0.2
RLPE | ≤ 0.2
DPGG | ≤ 0.2
QLGE | ≤ 0.2
ANIS | ≤ 0.2
NLVY | ≤ 0.2
RCGT | 0.462
EFKS | ≤ 0.2
WRAI | ≤ 0.2
GRRF | ≤ 0.2

Variant | one-hybrid fitness for binding NBS DNA
KLII | ≤ 0.2
SYWR | ≤ 0.2
VVGT | ≤ 0.2
PDDC | ≤ 0.2
PYWF | ≤ 0.2
QVFP | ≤ 0.2
STDS | ≤ 0.2
VLIR | ≤ 0.2
KQRM | ≤ 0.2
SLLA | ≤ 0.2
AQGS | ≤ 0.2
VRSM | ≤ 0.2
NWLG | ≤ 0.2
VLPY | ≤ 0.2
RWQL | ≤ 0.2
VNPA | ≤ 0.2
MFTE | ≤ 0.2
CCVS | ≤ 0.2
WRGW | ≤ 0.2
QCNM | 0.224
GCFT | ≤ 0.2
PQYI | ≤ 0.2
IMVS | ≤ 0.2
NCLY | ≤ 0.2

Variant | one-hybrid fitness for binding NBS DNA
PTYW | ≤ 0.2
ICPL | ≤ 0.2
RQAQ | ≤ 0.2
FAWT | ≤ 0.2
NNHG | ≤ 0.2
RLVD | ≤ 0.2
WYAG | ≤ 0.2
QMTA | 0.306
PRDK | ≤ 0.2
KNQM | ≤ 0.2
WRIF | ≤ 0.2
QYQK | ≤ 0.2
TMRD | ≤ 0.2
RMND | ≤ 0.2
DYRL | ≤ 0.2
NLPL | ≤ 0.2
DQSS | ≤ 0.2
PTLE | ≤ 0.2
